# Measurements: ChEMBL document CHEMBL4888484, “Replenishing the malaria drug discovery pipeline: Screening and hit evaluation of the MMV Hit Generation Library 1 (HGL1) against asexual blood stage Plasmodium falciparum ,using a nano luciferase reporter read-out” (2022)
# Hit rate of the full screen: of about 150,000 compounds, about 540 (0.36%) showed an effect of 50% or more. The list shows a part of the results.
# Tested on: Plasmodium falciparum
# Experiment: Primary screen in NF54 nanoGlo assay, in single point, at 2uM, 72h; a lower Z score goes with more inhibition
# Type: functional, Erythrocyte
# Conditions: timepoint 72 hour
SMILES,% Inhibition,Z score
Cc1cc(C(=O)Cn2cnc(C#N)n2)c(C)n1[C@H]1CCS(=O)(=O)C1,0%,0.05
COc1ccc(CCOc2nc(-c3ccc(Cl)c(Cl)c3)n(-c3ccc(NC(=O)c4cccs4)cc3)n2)cc1,-2%,0.25
Cc1cc(NS(=O)(=O)c2cccnc2)ccn1,7%,-1.2
Cc1cc(=O)n(CC(=O)Nc2ccccc2C)c(N2CCC(C)CC2)n1,-4%,0.36
Cc1cc(NC(=O)c2ccc(F)cn2)no1,15%,-1.62
COc1cc(C(=O)N2CCc3c(cccc3C(C)C)C2)sc1S(N)(=O)=O,-7%,1.12
C#CCN1CCC(C(=O)N(C2CCCC2)C2CC2)CC1,-11%,1.13
O=C(NCCCN1CCCC1=O)C1CCCCC1,-10%,1.45
COc1ccc([C@H]2Nc3ccccc3C(=O)N2c2cccc3ccccc23)cc1COc1ccccc1F,13%,-2.08
C[C@@H](CC(=O)N(C)CCS(C)(=O)=O)c1ccc(F)cc1F,4%,-0.59
Cn1c(-c2nc(-c3ccccc3F)no2)cccc1=O,0%,0.03
COc1ccc(CNCCOc2ccccc2)cc1OC[C@@H](O)CN1CCCCC1,7%,-1.33
CC(=O)N1CCC(C(=O)N[C@H]2CC[C@H](Oc3nc(C)cc(C)n3)CC2)CC1,-2%,0.22
COc1cc(OC)cc(C(=O)Nc2nc(C(=O)N3CCCCCC3)cs2)c1,-18%,3.32
O=C(NCc1ccccc1Cl)c1ccc2c(c1)NC(=O)[C@@H]1CCCCN21,-18%,2.47
CC(=O)Nc1ccc(C(C)(C)C)cc1NC(C)=O,-4%,0.46
O=S(=O)(NCC1CC2CCC1C2)c1ccc(Cl)s1 (configuration not stated),-4%,0.48
Cn1cccc(C(=O)NC[C@H]2C[C@@H]2c2ccccc2)c1=O,-6%,1.12
O=C(c1cccs1)N1CCC(C(=O)N2CCN(c3nccs3)CC2)CC1,-4%,0.58
Cc1nc2nncn2c(Nc2ccc3c(c2)CCC3)c1C,0%,0.04
Fc1ccccc1CNCc1cnc2ccc(Br)cn12,-9%,1.34
CCN(CCN1CCOCC1)C(=O)c1cc(C(F)(F)F)n[nH]1,-3%,0.35

SMILES,% Inhibition,Z score
CCCCNC(=O)[C@H](C#N)c1nccn1C(F)F,-14%,1.69
OCC[C@H](Nc1ncc(Cl)cc1Br)c1ccco1,-11%,1.45
CCc1cc(N2CCC[C@](C)(CO)C2)nc(N(C)C)n1,0%,-0.02
CCOC(C)C(=O)N(CC1CN(C)CCO1)c1nccs1 (configuration not stated),-17%,3.1
COc1ccc(Cl)cc1N1CC[C@H](NC(=O)c2cc[nH]n2)C1,5%,-0.61
COc1cc(Br)c(S(=O)(=O)Nc2ccccc2-c2cn[nH]c2)cc1Cl,-4%,0.39
CN(CCOc1ccc(O)cc1)C(=O)c1cccc2c1CCOC2,-4%,0.43
NC(=O)CCN(CCc1ccccc1)Cc1c[nH]nc1-c1ccc(F)cc1,2%,-0.36
CN(C)C(=O)NC[C@@H](CO)Cc1ccccc1C(F)(F)F,-4%,0.82
CN(Cc1noc(C2CC2)n1)C1CCN(c2ccccc2F)CC1,-1%,0.09
O=C(CN1CCCCC1)NC(=O)NC1CCCC1,-11%,1.07
CCOc1cc([C@H]2Nc3ccccc3C(CC)(CC)O2)ccc1O,-16%,2.07
C[C@H]1c2ccccc2CN1S(=O)(=O)c1ccc(N2CCCC2=O)cc1,-8%,1.24
CCOC(=O)c1nc(N(CC)Cc2ccccc2)c2ccccc2n1,-1%,0.11
CCN1C(=O)CCN(S(=O)(=O)c2ccc3c(c2)OCCO3)CC12CCOCC2,3%,-0.42
Nc1nnc([C@H]2CCCN(CC(=O)N3CCC(Cc4ccccc4)CC3)C2)o1,-5%,0.72
COC(=O)[C@@H](NCc1cnc(C)cn1)C(C)(C)C,-9%,0.96
CC1CC(C(=O)N[C@@H](C)c2cnccn2)CC(C)(C)C1 (some centres not stated),8%,-0.99
O=C1CCCCCN1CC(=O)N1CC[C@@]2(CCCN(CC3CCC3)C2=O)C1,9%,-1.08
O=C(c1cccc(F)c1F)N1CCOC[C@H]1c1nc(-c2cccs2)no1,7%,-1.03
Cc1ccccc1[C@H]1CCCN(Cc2ccnn2C)C1,-4%,0.61
Cc1ccc2c(c1)CCCN2C(=O)c1cc(C)no1,-16%,2.13

SMILES,% Inhibition,Z score
COc1ccc2c(c1)C(N1CCN(S(=O)(=O)c3cccc(F)c3)CC1)=Nc1ccc(C)cc1O2,-15%,2.4
COC1CCN([C@@H](C)C(=O)N2CCCCCC2)CC1,2%,-0.46
COCCC(=O)N1CCCn2cc(-c3cccc(C#N)c3)nc21,-9%,1.48
COc1ccc2[nH]c3c(c2c1)CC(C(=O)O)NC3c1ccc(OC)c(CN2CCN(c3ccccc3F)CC2)c1 (configuration not stated),74%,-11.3
CCC(=O)Nc1cccc(C(=O)OC)c1C,-7%,1
O=C(Nc1cccc2nsnc12)[C@@H]1COc2ccccc2O1,3%,-0.37
Cc1cc(Cn2cnc3c(cnn3C)c2=O)nn1C,-7%,1.33
O=C1CC[C@H](C(=O)N2CCC(c3nc4ccccc4o3)CC2)CN1,30%,-3.4
O=C(NCc1ccccc1Cl)NCc1ccccc1CN1CCOCC1,-2%,0.18
O=C(N[C@@H]1CCC[C@H]1OC(F)F)N1CCc2n[nH]c(=O)cc2C1,-7%,0.62
Cc1nc(C2(c3ccc(Cl)cc3)CCC2)n(C[C@H]2COCCO2)n1,-5%,0.69
CC(C)Cc1nc(Cn2cc(Br)cn2)no1,-4%,0.58
CCn1nccc1-c1ccc2c(c1)OC[C@@H](N1CCCC1)[C@@H]2O,-6%,1.07
COc1ccc(-c2cc(C(=O)O)nc3c4cccnc4nn23)cc1,-17%,2.09
Cc1cccc(OCc2nc(C)c(C(=O)Nc3sc4c(c3C#N)CC[C@H](C)C4)s2)c1,-19%,1.72
O=C(c1ccc([C@H]2CCCNC2)cc1)N1Cc2ccccc2C1,-14%,2.37
O=S(=O)(Nc1ccccc1-c1nnc2n1CCCCC2)C1CC1,-6%,0.56
COc1cc(Cl)c(C)cc1NC(=O)c1cc(=O)n(-c2ccc(C)cc2)[nH]1,53%,-6.9
Cn1ccc([C@H]2CCCN(C(=O)CNC(=O)c3ccccc3)C2)n1,-28%,3.22
O=C(NCc1ccco1)c1ccccc1NS(=O)(=O)c1ccc2c(c1)OCCO2,-3%,0.42
Cc1cc(NS(=O)(=O)c2ccccc2)n(-c2cc(C)c3ccccc3n2)n1,6%,-0.72
Cc1cc(CN2CCC(CO)CC2)c(C)s1,-1%,0.11

SMILES,% Inhibition,Z score
C=CCn1c(O)c(CN2CCN(Cc3ccccc3)CC2)c(C)c(C#N)c1=O,-14%,1.71
CCCCc1ccc(C(=O)N2[C@@H]3CC[C@H]2CNC(=O)C3)nc1,-24%,2.11
O=C(O)[C@H]1CCCN1C(=O)CC1CCc2ccccc2C1 (some centres not stated),-12%,1.49
CC(C)CCn1ncc(C(=O)NCC2CCN(C)CC2)c1C(C)C,-1%,0.11
O=C(c1ccccn1)N1CC2CCCCC2C1 (configuration not stated),28%,-3.16
CC[C@@](C)(C(=O)NC1CCCC1)N(C(=O)Cc1cccs1)c1ccccc1,6%,-0.94
Cc1ccc(-n2nc(C)c3c2NC(=O)C[C@@H]3c2ccc(C(=O)O)cc2)cc1,-5%,0.67
CC[C@@H]1Oc2ccc(S(=O)(=O)N3CCN(C(=O)c4cc(OC)cc(OC)c4)CC3)cc2NC1=O,-18%,1.81
O=C(NCc1ccccc1)c1ccc(-c2cccs2)nc1,-20%,3.86
Cc1cc(COc2cccc(C(=O)NC3CC3)c2)on1,-1%,0.08
Cc1ccc(CS(=O)(=O)NC(=O)Cc2c[nH]c3ccc(F)cc23)c(C)c1,-5%,0.87
COc1cc(/N=C(/NCCN2CCOCC2)NC(=O)c2ccc3c(c2)OCO3)cc(OC)c1,-2%,0.2
O=C(NCC(F)(F)F)c1ccccc1F,-3%,0.65
CCn1ccc2cc(CN3C[C@@H]4CC[C@H]3CN(Cc3ccccn3)C4)ccc21,-3%,0.48
CC(=O)Nc1nc(-c2ccc3c(c2)N(Cc2ccccc2)C(=O)CO3)cs1,-10%,1.3
CCOC(=O)c1nccc(NC2C3CC2N(C(=O)OC(C)(C)C)C3)n1 (configuration not stated),-1%,0.19
COCCNC(=O)NCC1CCCN(C)C1c1cccs1 (configuration not stated),-8%,1.22
Clc1cccc2c1CC[C@@H]2NCc1csc(-c2ccccn2)n1,-7%,0.67
C[C@]1(c2ccccc2)CCC(=O)N(CC2CCOCC2)C1,-16%,3
Cn1nc(C(F)(F)F)c(CNC(=O)c2ccco2)c1Oc1ccccc1,1%,-0.19
